In article PMC4299142:
Results are given in words; binding and its absence hold for the method and conditions named. For some of these results: Binding seen in cells or lysates may run through a third protein. Some entries that bind do so weakly or less than the wild type. For some of these results: Sequences can lack the tags named with a protein.

B1: ACTIN-… PROTEIN1-2 (AIP1-2), full-length cDNA clones from the seedling library (protein, UniProt Q9LV35 1-609)
chain: MELSETYACVPSTERGRGILISGNSKSDTILYTNGRSVVTLDLNNPLKVSIYGEHAYPATVARYSPNGEWIASGDVSGTVRIWGAYNDHVLKNEFKVLAGRIDDLQWSADGMRIVASGDGKGKSLVRAFMWDSGSNVGEFDGHSRRVLSCAIKPTRPFRIVTCGEDFLVNFYEGPPFKFKLSSREHSNFVNCVRFAPDGSKFITVSSDKKGIIYDGKTCEILGELSSDDGHKGSIYAVSWSPDGKQVLTVSADKSAKIWDISDNGSGSLNTTLNCPGSSGGVDDMLVGCLWQNDHIVTVSLGGTISIFSASDLDKSPFQFSGHMKNVSSLAVLKGNADYILSGSYDGLICKWMLGRGFCGKLQRTQNSQIKCFAAHEEEIVTSGYDNKISRISYKDDQCTNEESIDIGNQPKDLSLAPLSPDLLLVTFESGVVFLRDGKVVSTINLGFIVTALAVTPDGTEAVIGGQDGKLHLYSINGDSLTEEAVLERHRGAISVIRYSPDLSMFASADLNREAVVWDRVSREMKLKNMLYHSARINCLAWSPNSTMVATGSLDTCVIVYEVDKPASSRMTIKGAHLGGVYGLGFADDSHVVSSGEDACIRVWSFTPQ
B2: ACTIN-… PROTEIN1-2 (AIP1-2), LexA or B42 AD fusion for pairwise two-hybrid (protein, UniProt Q9LV35 1-609)
chain: B1 chain
B3: AIP1-1, fusion for pairwise two-hybrid (protein, UniProt Q9ZU34 1-611)
chain: MAKLLETFPCVPSTERGRGILISGDSKSDTILYCNGRSVFIRSLRQLQDVQVYGEHGYAVTVARYSPNGEWIASADVSGTVRVWGTHNGFVLKNEFRVLAGRVDDLQWSFDGLRIVASGDGKGKSLVRSFAWDSGNTMGDFDGHSRRVLSCAFKPTRPFRIATCGEDFLVNFYDGPPFKFHSSHREHSNFVNCIRYSPDGTKFITVSSDKKGMIYDGKTGDKVGELASEDGHKGSIYAVSWSPDSKRVLTVSADKSAKVWEVAEDGTIGSVIKTLSFMESGGAEDMLVGCLWQNDHLITVSLGGTMSLFSADDMDKPPLLLSGHIKNVTSLAVLGENQKTILSCSYDGLIVKWLKGVGYSCKLQMKDTKIKRLAATESSIFISGYDNMVWRIPLTDNGYGAAEHVDIGHQPLDISIAVDSPEATALVSFDSGVVLLNGLNILSKIDLGFAVAASVISPDGKEAIVGGQDGKLHIYSVSGDNNLKEEAVLEKHRGALTVIRYSPDLTMFASGDANREAVVWDRETKQVKLNNMLFHTARINSLAWSPNNKMVATGSIDTCVIVYEVDKPASSRITARNAHLGGVNAVAFIDDCTVASSGEDASVRLWHIEPQ
B4: truncated form of AIP1-1 (ΔAIP1-1), lacking the first 137 amino acids (domain or fragment, UniProt Q9ZU34 138-611)
chain: MGDFDGHSRRVLSCAFKPTRPFRIATCGEDFLVNFYDGPPFKFHSSHREHSNFVNCIRYSPDGTKFITVSSDKKGMIYDGKTGDKVGELASEDGHKGSIYAVSWSPDSKRVLTVSADKSAKVWEVAEDGTIGSVIKTLSFMESGGAEDMLVGCLWQNDHLITVSLGGTMSLFSADDMDKPPLLLSGHIKNVTSLAVLGENQKTILSCSYDGLIVKWLKGVGYSCKLQMKDTKIKRLAATESSIFISGYDNMVWRIPLTDNGYGAAEHVDIGHQPLDISIAVDSPEATALVSFDSGVVLLNGLNILSKIDLGFAVAASVISPDGKEAIVGGQDGKLHIYSVSGDNNLKEEAVLEKHRGALTVIRYSPDLTMFASGDANREAVVWDRETKQVKLNNMLFHTARINSLAWSPNNKMVATGSIDTCVIVYEVDKPASSRITARNAHLGGVNAVAFIDDCTVASSGEDASVRLWHIEPQ

What was measured:
[1] = molecular target: T1, ACTIN-… PROTEIN1-2 (AIP1-2), LexA or B42 AD fusion for pairwise two-hybrid (Arabidopsis) (UniProt Q9LV35); experiment: two-hybrid; pairwise, LexA-based interaction trap; bait vector pMG8 (pEG202 derivative), prey vector pMG5 (pJG4-5 derivative, B42 AD); yeasts grown for 24 or 48 h
T1 sequence: B1 chain

[2] = molecular target: T2, AIP1-1, fusion for pairwise two-hybrid (Arabidopsis) (UniProt Q9ZU34); experiment: as above
T2 sequence: B3 chain

[3] = molecular target: ACTIN7 (ACT7), LexA or B42 AD fusion for pairwise two-hybrid (Arabidopsis) (UniProt P53492); experiment: as above
[4] = molecular target: T3, truncated form of AIP1-1 (ΔAIP1-1), lacking the first 137 amino acids (Arabidopsis) (UniProt Q9ZU34); experiment: as above
T3 sequence: B4 chain

GST-AIP1-2 (Arabidopsis) = molecular target: T4, GST-AIP1-2 (Arabidopsis) (UniProt Q9LV35); experiment: pull-down; GST fusion from bacterial extract bound to 40 µl glutathione sepharose, incubated with 300 µl bacterial extract containing 6×His-ACT2 or 6×His-ACT7; western blot; only the target purified
T4 sequence: B1 chain

[5] = molecular target: ACTIN7 (ACT7), full-length bait of the Hybrigenics two-hybrid screen (Arabidopsis) (UniProt P53492); experiment: two-hybrid; screen at Hybrigenics (ULTImate Y2H): full-length ACT7 bait against a one-week-old Arabidopsis seedling cDNA expression library
[6] = molecular target: ACT8, fusion for pairwise two-hybrid (Arabidopsis) (UniProt Q96293); experiment: two-hybrid; pairwise, LexA-based interaction trap; bait vector pMG8 (pEG202 derivative), prey vector pMG5 (pJG4-5 derivative, B42 AD); yeasts grown for 24 or 48 h
[7] = molecular target: ACT2, fusion for pairwise two-hybrid (Arabidopsis) (UniProt Q96292); experiment: as above
[8] = molecular target: ACT1, fusion for pairwise two-hybrid (Arabidopsis) (UniProt P0CJ46); experiment: as above

Row | Molecule | binding [1] | binding [2] | binding [3] | binding [4] | also measured
1 | ACT8, fusion for pairwise two-hybrid (from UniProt Q96293 1-377) | binds | binds | binds | no binding | 
2 | 6×His-ACT7 (from UniProt P53492 1-377) |  |  |  |  | binding (GST-AIP1-2 (Arabidopsis)): binds
3 | 6×His-ACT2 (from UniProt Q96292 1-377) |  |  |  |  | binding (GST-AIP1-2 (Arabidopsis)): binds
4 | ACT1, fusion for pairwise two-hybrid (from UniProt P0CJ46 1-377) | binds | binds |  | no binding | 
5 | ACTIN7 (ACT7), LexA or B42 AD fusion for pairwise two-hybrid (from UniProt P53492 1-377) | binds |  |  | no binding | 
6 | ACT2, fusion for pairwise two-hybrid (from UniProt Q96292 1-377) | binds | binds | binds | no binding | 
7 | B1 |  |  |  |  | binding [5]: binds
8 | B2 |  |  | binds |  | 
9 | B3 |  |  | binds |  | 
10 | B4 |  |  | no binding |  | binding [6]: no binding; binding [7]: no binding; binding [8]: no binding
